Data as given in PubChem BioAssay (NCATS).
Where “and” joins values, the source holds several entries; their conditions need not be identical. Equal values may be shown once. Some of the results follow. These are further read-outs of the screen, such as a control signal, another cell line or another target. No call is given for them. Most of these compounds were active or inconclusive in the main read-out, so they are no random draw. For some assays here: Words in brackets tell the shape of the fitted curve; partial curves, single points and poor fits give uncertain potencies.

Legend:
[1] = qHTS Assay for Lipid Storage Modulators (AID 1519); settings: Drosophila S3 cells, BODIPY lipid droplet/cell ratio, laser cytometry, cells loaded with oleic acid
Summary of the method: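 Cells seeded at 5,000 per well were treated with compounds over a concentration series and loaded with oleic acid (400 uM, as added). Lipid droplet fluorescence (488 nm excitation, 500-530 nm channel) was read by laser-scanning cytometry and normalized to 20 uM Triacsin C.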

[2] = qHTS assay for small molecule antagonists of androgen receptor signaling (AID 588516); settings: AR-UAS-bla HEK293, beta-lactamase ratio, antagonist mode, 16 h
Summary of the method: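 Antagonist mode: inhibition of R1881-stimulated (10 nM final) bla reporter in GeneBLAzer AR HEK 293 cells, 16 h at 37C, compounds titrated. IC50 and efficacy from Hill-equation fits of 405/460–530 nm FRET ratios.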

[3] = qHTS assay for small molecule antagonists of peroxisome proliferator-activated receptor gamma signaling (AID 588537); settings: HEK293 PPARg-UAS-bla, beta-lactamase ratio, antagonist mode; measured here: W460 blue channel
Summary of the method: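 Step one: plate 3000 HEK293 UAS-bla cells per well in medium with 1% stripped serum and hold 6-6.5 h at 37 C. Step two: add compound and 50 nM agonist for 16 h. Step three: CCF4 loading, fluorescence read.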

[4] = qHTS assay for small molecule agonists of retinoid X receptor alpha signaling (AID 588544); settings: HEK293T RXRa-UAS-bla, beta-lactamase reporter, 18 h; 530 nm emission
[5] = qHTS assay for small molecule antagonists of retinoid X receptor alpha signaling (AID 588546); settings: HEK293T RXRa-UAS-bla, beta-lactamase ratio, antagonist mode; measured here: W530 green channel, cytotoxicity proxy;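 further: cells stimulated with 9-cis-retinoic acid as agonist; on the % scale 0 is the no-effect control and ±100 the full control effect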
Summary of the method: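 Beta-lactamase reporter inhibition, read as CCF4 fluorescence ratio (ex 405, em 460/530 nm) after 2 h at RT. HEK293T UAS-bla cells, 2500/well, were stimulated with 9-cis-RA at 500 or 100 nM final alongside test compound for 18 h at 37 C.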

[6] = A High-Content qHTS Against Drug Library for the Identification of Small Molecules that Inhibit DYT1 Early Onset Primary Dystonia-Associated Cell Pathology (AID 1645839); settings: HEK293 Flp-In EGFP-delE TorsinA, punctate imaging, 48 h; measured here: cell count cytotoxicity
Summary of the method: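 Flp-In T-REx 293 cells with tetracycline-inducible EGFP-delE hTOR1A (WT EGFP-hTOR1A as reference), 800 cells/well; compound added with tetracycline, 48 h at 37 C. Fixed, permeabilized cells imaged; %pathology (punctate TorsinA) primary, cell count counterscreen.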

[7] = target: Histamine N-methyltransferase (Homo sapiens) (UniProt P50135); assay: Confirmatory Screen for Target Class Profiling of Small Molecule Inhibitors of Methyltransferases (AID 1745852); settings: MTase-Glo luminescence, SAH detection, recombinant enzyme; measured here: HNMT inhibition potency;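 further: inhibitor potency for blocking SAH production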
Chain of UniProt P50135 (P50135 whole entry, looked up): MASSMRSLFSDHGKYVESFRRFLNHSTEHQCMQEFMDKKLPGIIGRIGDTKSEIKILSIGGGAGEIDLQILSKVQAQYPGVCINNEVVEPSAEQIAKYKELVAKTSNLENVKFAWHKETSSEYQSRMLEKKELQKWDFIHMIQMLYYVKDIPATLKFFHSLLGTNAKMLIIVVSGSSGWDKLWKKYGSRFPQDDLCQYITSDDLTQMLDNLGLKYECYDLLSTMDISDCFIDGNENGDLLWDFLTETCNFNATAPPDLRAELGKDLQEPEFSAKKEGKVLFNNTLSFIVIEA

[8] = target: Nicotinamide N-methyltransferase (Homo sapiens) (UniProt P40261); assay: as above; settings: MTase-Glo luminescence, SAH detection, recombinant enzyme; measured here: NNMT inhibition potency
Chain of UniProt P40261 (P40261 whole entry, looked up): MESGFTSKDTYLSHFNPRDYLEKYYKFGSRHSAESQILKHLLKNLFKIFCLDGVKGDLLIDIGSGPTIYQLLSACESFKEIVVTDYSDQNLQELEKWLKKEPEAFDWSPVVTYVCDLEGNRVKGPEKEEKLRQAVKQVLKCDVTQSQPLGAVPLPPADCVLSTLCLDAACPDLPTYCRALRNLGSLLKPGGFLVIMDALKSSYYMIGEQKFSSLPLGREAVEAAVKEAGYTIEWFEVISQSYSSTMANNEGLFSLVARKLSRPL

[9] = target: Phenylethanolamine N-methyltransferase (Homo sapiens) (UniProt P11086); assay: as above; settings: MTase-Glo luminescence, SAH detection, recombinant enzyme; measured here: PNMT inhibition potency
Chain of UniProt P11086 (P11086 whole entry, looked up): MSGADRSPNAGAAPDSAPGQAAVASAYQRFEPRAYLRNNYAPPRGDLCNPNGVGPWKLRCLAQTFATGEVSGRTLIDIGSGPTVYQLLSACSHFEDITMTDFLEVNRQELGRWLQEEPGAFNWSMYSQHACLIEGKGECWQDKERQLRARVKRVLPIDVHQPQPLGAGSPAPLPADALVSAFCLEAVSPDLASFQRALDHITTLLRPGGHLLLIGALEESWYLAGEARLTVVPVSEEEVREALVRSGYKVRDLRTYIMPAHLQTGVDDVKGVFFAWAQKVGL

[10] = NCATS anti-infectives library activity on the primary C. elegans qHTS viability assay (AID 1745855); settings: C. elegans worm area imaging
Summary of the method: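 Viability is taken from GFP fluorescence of PE254-GFP-FLuc C. elegans imaged by laser cytometry over 7 days. Ten L1 worms per well grow at 21 °C on TOP10 E. coli capsules with titrated compound; levamisole marks toxicity.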

[11] = measured here: cell count channel max response
[12] = measured here: cell number channel AC50
[13] = measured here: lipid (BODIPY) channel AC50
[14] = measured here: lipid channel max response
Tags describe the fitted curve by direction and shape.

CCCCNC(=O)[C@@H]1Cc2ccccc2N1C(=O)[C@H](N)CC
max response [1, 11]: 86% | AC50 [1, 12]: 15.8 µM [rising, partial curve, poor fit] | AC50 [1, 13]: 39.8 µM [rising, partial curve, poor fit] | max response [1, 14]: 115%

C[N+]1(C)CCCC(OC(=O)C(O)(c2ccccc2)c2ccccc2)C1 (configuration not stated)
max response [1, 11]: 30.9% | AC50 [1, 12]: 39.8 µM [rising, single point] | AC50 [1, 13]: 39.8 µM [rising, single point] | max response [1, 14]: 44.1%

COc1cc2oc(-c3ccccc3)cc(=O)c2cc1O
max response [1, 11]: 104% | AC50 [1, 12]: 12.6 µM [rising, partial curve] | AC50 [1, 13]: 14.1 µM [rising, partial curve] | max response [1, 14]: 141%

COc1ccccc1CNc1cc(-c2ccc(C(=O)N(C)C)cc2)ncn1
max response [1, 11]: 39.1% | AC50 [1, 12]: 7.94 µM [rising, partial curve, poor fit] | AC50 [1, 13]: 1.12 µM [rising, full curve, poor fit] | max response [1, 14]: 45.2%

NC(=NCCCCCCN=C(N)/N=C(\N)Nc1ccc(Cl)cc1)/N=C(\N)Nc1ccc(Cl)cc1
max response [1, 11]: -30% and -102% | AC50 [1, 12]: 12.6 µM [falling, single point] and 17.8 µM [falling, partial curve] | AC50 [1, 13]: 12.6 µM [falling, partial curve, poor fit] and 12.6 µM [falling, partial curve] | max response [1, 14]: -48.8% and -109% | AC50 ([2]; measured here: W460 blue channel fit): 35.5 µM [falling, full curve, poor fit] | AC50 ([2]; measured here: W530 green channel, cytotoxicity/artifact): 44.7 µM [rising, single point] | AC50 [3]: 39.8 µM [falling, partial curve, poor fit] | max response [4]: 42.3% and 52.9% and -70.1% | max response [5]: 42.9% and 8.06% | AC50 [6]: 10 µM [falling, partial curve, poor fit] | IC50 [7]: 3.04 µM [falling, full curve] | IC50 [8]: 21.5 µM [falling, partial curve] | IC50 [9]: 15.2 µM [falling, partial curve] | AC50 ([10]; day 7, measured here: worm number): 1.83 µM [falling, partial curve, poor fit] | AC50 ([10]; day 7, measured here: worm area, day 3): 16.3 µM [falling, partial curve, poor fit]

Cn1c(=O)c(-c2cccs2)nc2cnc(Oc3ccccc3)nc21
max response [1, 11]: 27.6% | AC50 [1, 12]: 1 µM [rising, partial curve] | AC50 [1, 13]: 2.82 µM [falling, partial curve, poor fit] | max response [1, 14]: -71.4%

CCNc1ncc2nc(-c3cccs3)c(=O)n(Cc3cccc(OC)c3)c2n1
max response [1, 11]: 30.1% | AC50 [1, 12]: 0.0501 µM [rising, full curve, poor fit] | AC50 [1, 13]: 0.0562 µM [rising, full curve, poor fit] | max response [1, 14]: 29.7%

CCCNC(=O)N1N=C(c2ccc(N)cc2)c2cc3c(cc2[C@H]1C)OCO3
max response [1, 11]: 91% | AC50 [1, 12]: 0.398 µM [rising, full curve] | AC50 [1, 13]: 0.316 µM [rising, full curve] | max response [1, 14]: 121%

COc1cc2ccc(=O)oc2c(O)c1OCC=C(C)C
max response [1, 11]: 71.5% | AC50 [1, 12]: 35.5 µM [rising, partial curve] | AC50 [1, 13]: 35.5 µM [rising, single point] | max response [1, 14]: 73.8%

CCCCCCCCNC(C)C(O)c1ccc(SC(C)C)cc1 (configuration not stated)
max response [1, 11]: -104% | AC50 [1, 12]: 25.1 µM [falling, single point] | AC50 [1, 13]: 22.4 µM [falling, single point] | max response [1, 14]: -109% | AC50 [6]: 11.2 µM [falling, partial curve, poor fit]

CC(=O)NCCNc1nc(-c2ccccc2C)nc2ccccc12
max response [1, 11]: 29.1% | AC50 [1, 12]: 1.58 µM [rising, partial curve] | AC50 [1, 13]: 1.78 µM [rising, partial curve] | max response [1, 14]: 33.4%

CS(=O)(=O)Nc1cccc(-c2cncnc2Nc2ccccc2)c1
max response [1, 11]: 32% | AC50 [1, 12]: 2.51 µM [rising, full curve] | AC50 [1, 13]: 2.51 µM [rising, full curve, poor fit] | max response [1, 14]: 36.5%

CC(C)N=c1cc2n(-c3ccc(Cl)cc3)c3ccccc3nc-2cc1Nc1ccc(Cl)cc1
max response [1, 11]: -86.4% | AC50 [1, 12]: 12.6 µM [falling, partial curve] | AC50 [1, 13]: 14.1 µM [falling, partial curve] | max response [1, 14]: -112%

Cl/C(=C\n1cncn1)c1ccc(Cl)cc1Cl
max response [1, 11]: 107% | AC50 [1, 12]: 14.1 µM [rising, partial curve] | AC50 [1, 13]: 15.8 µM [rising, partial curve] | max response [1, 14]: 132% | AC50 [6]: 12.6 µM [rising, single point]

COCCn1c(=O)c(-c2cccs2)nc2cnc(N3CCNCC3)nc21
max response [1, 11]: 40.1% | AC50 [1, 12]: 7.08 µM [rising, full curve] | AC50 [1, 13]: 4.47 µM [rising, full curve] | max response [1, 14]: 47.7%

C[C@@]12CCC(OC(=O)c3ccccc3)CC1CCc1ccccc12 (some centres not stated)
max response [1, 11]: 32.8% | AC50 [1, 12]: 0.0158 µM [rising, full curve, poor fit] | AC50 [1, 13]: 20 µM [rising, partial curve] | max response [1, 14]: 39.2%
